Test results reported in PubChem BioAssay AID686978 (National Center for Advancing Translational Sciences (NCATS), 2013).
Out of some 420,000 compounds screened, about 64,000 (15%) were called active. Inconclusive means that the source gave no clear call. Such entries were picked first, then a sample of the others. Calls follow the shape of the dose curve; as a rule, active = well fitted inhibition curve with a large enough effect; inconclusive = small, poorly fitted or top-dose-only effect; inactive = flat fitted curve, though single readings scatter. No potency is given beside an inconclusive call; the fits are too rough.

Assay: qHTS for Inhibitors of human tyrosyl-DNA phosphodiesterase 1 (TDP1): qHTS in cells in absence of CPT; also: nearly all actives have a fitted effect of over 55% in size
Details: DT40 Tdp1-/- hTDP1 cells, no CPT, ATP luminescence, 48 h; series mostly up to 46.2 µM
Procedure, shortened: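 Stably hTDP1-transfected Tdp1-null chicken DT40 cells were treated with library compounds minus camptothecin and grown for at least 48 hr at 37 °C, after which cellular ATP was quantified by luminescence.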
Potency is read from the fitted curve at half-maximal effect; tags tell the direction and shape of the fitted curve.

Row | Structure (SMILES) | Potency
1 | Cc1ccc(CNc2ccc(N3C(=O)CCCC3=O)cc2[N+](=O)[O-])cc1 | inconclusive [inhibitor, single point]
2 | Cc1onc(C(=O)N2CCN(C(c3ccccc3)c3ccccc3)CC2)c1[N+](=O)[O-] | inconclusive [inhibitor, single point]
3 | COCC1CCCN(C(=O)c2cc(COc3cncc(Cl)c3)on2)C1 (stereo not drawn) | inconclusive [inhibitor, partial curve, poor fit]
4 | O=C(CN1CCN(c2cccc(Cl)c2)CC1)c1ccc(O)cc1O | inconclusive [inhibitor, single point]
5 | S=C(CSc1ccccc1)Nc1cccc2ccccc12 | inconclusive [inhibitor, single point]
6 | CC(=O)Nc1cccc(NC(=O)c2cccc(-c3ccc(O)cc3)c2)c1 | inconclusive [inhibitor, single point]
7 | COc1ccc(-c2nsc(SCC(=O)Nc3ccc4c(c3)OCO4)n2)cc1 | inconclusive [inhibitor, partial curve, poor fit]
8 | CCOc1ccc(S(=O)(=O)NCCC(=O)OCC(=O)N2CC(=O)Nc3ccccc32)cc1 | inactive
9 | Oc1cc2c(cc1O)[C@H](c1ccccc1)CNCC2 | active: 26.6 µM
10 | CC1CCN(C(=O)CSc2nc3cccnc3n2C)CC1 | inactive
11 | COc1ccc(CCN2C(=NC(=O)CC(C)C)SC3CS(=O)(=O)CC32)cc1OC (stereo not drawn) | inconclusive [inhibitor, single point]
12 | CCCSc1ccc([C@@H]2[C@H]3C(=O)N(CC)C(=O)[C@H]3[C@]3(C(=O)OC)CCCN23)cc1OC | inconclusive [inhibitor, partial curve]
13 | CC(=O)Nc1ccc(Oc2cc(C#N)c(C#N)cc2N2CCCCCC2)cc1 | inactive
14 | O=C1Cc2ccccc2Sc2ccc(O)cc21 | inconclusive [inhibitor, partial curve, poor fit]
15 | O=C(NCC(c1cccs1)N1CCOCC1)c1ccc(Cl)cc1 (stereo not drawn) | inconclusive [inhibitor, single point]
16 | Cc1ccc(S(=O)(=O)N(C)C)cc1NC(=O)COC(=O)c1ccc2ccccc2n1 | inactive
17 | N#CCOc1nc(N2CCCC2)nc(N2CCCC2)n1 | inconclusive [inhibitor, single point]
18 | CC1CCCC(=NNc2ccc3ccccc3n2)C1 (stereo not drawn) | inconclusive [inhibitor, single point]
19 | COCCNC(=O)C(c1ccc(C)o1)N(C(=O)c1snc(C(N)=O)c1N)c1ccc(C)c(C)c1 (stereo not drawn) | inactive
20 | CCOC(=O)Cc1csc(NC(=O)Nc2cccs2)n1 | inconclusive [inhibitor, partial curve]
21 | COCc1cccc(-c2csc(C(C)(NC(C)=O)c3ccc(OC)cc3)n2)c1 (stereo not drawn) | inconclusive [inhibitor, partial curve]
22 | CCOc1ccc(NC(=O)c2oc3ccccc3c2NC(=O)c2c(F)cccc2F)cc1 | inconclusive [inhibitor, single point]
23 | Cc1cc(=O)c2ccccc2[nH]1 | inactive
24 | O=[N+]([O-])c1cccc(/C=N/Nc2nc(N3CCOCC3)nc(N3CCOCC3)n2)c1 | inconclusive [inhibitor, single point]
25 | CC(=O)c1cccc(-c2cnc3c(NC=O)cc(-c4ccc(C(=O)N5CCOCC5)cc4)cn23)c1 | inconclusive [inhibitor, single point]

Row | Structure (SMILES) | Potency
26 | COc1ccc(S(=O)(=O)c2ccc(OC)cc2)cc1 | inactive
27 | Cc1ccnc(N2C(=O)c3ccccc3C2Nc2ccc3c(c2)OCCO3)c1 (stereo not drawn) | inconclusive [inhibitor, single point]
28 | COc1cccc(-n2ccn(CC(=O)c3ccc(F)cc3)c(=O)c2=O)c1 | inactive
29 | COCCNc1nc(-n2nc(C)cc2C)nc2sc3c(c12)CCCC3 | active: 5.17 µM
30 | CN(CC(=O)Nc1ccc(N2CCOCC2)cc1)CC(=O)Nc1ccc(Cl)cc1[N+](=O)[O-] | active: 25.9 µM
31 | COc1cc(NC(=S)Nc2cccnc2)cc(OC)c1 | inconclusive [inhibitor, single point]
32 | COc1ccccc1N1CCN(C(=O)CSc2nc3ccccc3nc2Cc2ccccc2)CC1 | active: 23.1 µM
33 | COC(=O)N1C/C=C\C(c2ccc(OC)cc2)N(Cc2ccc(F)cc2)C(=O)C1 (stereo not drawn) | inactive
34 | Cc1ncc2c(c1CNS(=O)(=O)N(C)C)CCN(C(=O)c1ccccc1F)C2 | inactive
35 | Cc1ccc(S(=O)(=O)NCCC(=O)NCC(c2ccc(F)cc2)N2CCOCC2)cc1 (stereo not drawn) | inactive
36 | S=C(NCc1ccccc1)N1CCN(Cc2ccc3c(c2)OCO3)CC1 | inconclusive [inhibitor, partial curve]
37 | COc1ccc(NC(=O)CN(C)C(=O)Cc2ccc(-c3ccccc3)cc2)cc1 | inconclusive [inhibitor, single point]
38 | Cc1ccccc1Nc1nc(N)nc(CSc2nnc(C)n2C)n1 | inactive
39 | Cc1ccc(CN2CCN(Cc3ccco3)CC2)cc1 | inactive
40 | O=C(NCC1CC1)c1onc(CSc2nc3ccccc3[nH]2)c1C(=O)NCC1CC1 | inconclusive [inhibitor, single point]
41 | Cc1ccc(C2(c3noc(CN(C)CC4CCCCO4)n3)CCCC2)cc1 (stereo not drawn) | inconclusive [inhibitor, single point]
42 | N#CC1=C(N)C(C#N)(C#N)[C@H](c2cccnc2)[C@H]2CN(C(=O)OCc3ccccc3)CC=C12 | active: 14.6 µM
43 | CCOC(=O)C1C(=O)C=C(c2ccc([N+](=O)[O-])cc2)CC1c1ccccc1 (stereo not drawn) | inactive
44 | O=c1oc2ccccc2c(O)c1/C=C1\C=Nc2ccccc21 | active: 7.31 µM
45 | CCNC(=O)C1CCCN(C(=O)c2ccccc2OC(F)(F)F)CC1 (stereo not drawn) | inactive
46 | N#Cc1c(-c2ccc(Cl)cc2)n(O)c2ccccc12 | active: 3.26 µM
47 | COc1ccc(-c2nc(NC(=O)c3ccccc3)sc2-c2ccc([N+](=O)[O-])cc2)cc1 | inactive
48 | COc1ccc(NS(=O)(=O)c2cccc(C(=O)N3CCN(S(=O)(=O)c4ccccc4)CC3)c2)cc1 | inconclusive [inhibitor, single point]
49 | Nc1c(-c2cccc([N+](=O)[O-])c2)nc2ccccn12 | inconclusive [inhibitor, single point]
50 | Cc1ccc(CSC2=Nc3ccccc3C3=NC(CC(=O)NC4CCCCC4)C(=O)N23)cc1 (stereo not drawn) | active: 1.16 µM

Row | Structure (SMILES) | Potency
51 | O=C(O)C=Cc1ccc(Cn2ccnc2)cc1 | inactive
52 | COc1ccc(CCn2c(=N)c(S(=O)(=O)c3ccccc3)cc3c(=O)n4ccccc4nc32)cc1 | inconclusive [inhibitor, single point]
53 | COc1ccccc1N1CCN(C(=O)c2cc(-c3ccc(F)cc3)on2)CC1 | inconclusive [inhibitor, single point]
54 | COc1ccccc1/C=C/C=N/NC(=O)c1ccncc1 | inactive
55 | CCCCOc1ccc(N(CC(=O)NC(C)(C)CC)C(=O)CCC(=O)Nc2ccccn2)cc1 | inconclusive [inhibitor, single point]
56 | CCN(c1cccc(C)c1)S(=O)(=O)c1nnc(NC(=O)c2ccccc2Cl)s1 | inconclusive [inhibitor, single point]
57 | CCC1(c2ccccc2)NC(=O)N(CC(=O)NCC2COc3ccccc3O2)C1=O (stereo not drawn) | inconclusive [inhibitor, single point]
58 | CS/C(N)=N/N=C/c1cc(Br)cc(Br)c1O | active: 16.4 µM
59 | CS(=O)(=O)c1ccccc1C(=O)N1CCN(Cc2ccccc2)CC1 | inconclusive [inhibitor, partial curve, poor fit]
60 | CCN(CC)C(=O)c1c(-c2ccccc2)oc2ccc(O)cc12 | inconclusive [inhibitor, single point]
61 | CC(=O)c1ccc(N2C(=O)N(CC(=O)c3ccc(C)cc3)c3ccccc3S2(=O)=O)cc1 | active: 23.1 µM
62 | CCN1CCN(c2ccc(NC(=O)c3ccc(C#N)cc3F)cc2Cl)CC1 | inconclusive [inhibitor, single point]
63 | COc1ccc2cc(CN(CC3CCCO3)C(=S)Nc3ccccc3)c(=O)[nH]c2c1 (stereo not drawn) | active: 6.51 µM
64 | CCOC(=O)c1ccc(NC(=O)CSc2nc(=O)n3cccc(C)c3n2)cc1 | active: 13 µM
65 | CS(=O)(=O)N1CCN(c2ccc(C(=O)N3CCOCC3)cc2[N+](=O)[O-])CC1 | inactive
66 | CCn1cc(C(=O)O)c(=O)c2cnc(N3CCN(C(=S)NC(=O)c4ccc(Br)cc4)CC3)nc21 | inactive
67 | CC(C)c1ccc(C(=O)NCCCN(C)C)cc1 | inactive
68 | Cc1ccc(-c2nc(Cn3c(=O)cc(-c4ccccc4)c4c(C)nn(C)c43)c(C)o2)cc1 | inactive
69 | COc1ccc(NS(=O)(=O)c2cccc(NC(=O)C3=NN(c4ccccc4)C(=O)CC3)c2)cc1 | active: 14.6 µM
70 | COc1ccc(CNC(=O)CN(C(=O)CCC(=O)Nc2ccccn2)c2cccc(C)c2C)cc1 | inconclusive [inhibitor, full curve, poor fit]
71 | CC(C)(c1ccccc1)c1ccc(OCCCN2CCNCC2)cc1 | active: 7.31 µM
72 | COc1ccc(-c2nc(S(=O)(=O)c3ccc(C)cc3)c(N3CCCC3)o2)cc1 | inactive
73 | C[C@H](CO)N1C[C@H](C)[C@@H](CN(C)C(=O)Nc2ccc(F)cc2)Oc2cc(Br)ccc2S1(=O)=O | inconclusive [inhibitor, single point]
